Measured values reported in patent publication EP1586565A1, “Substituted polycyclic aryl and heteroaryl pyrazinones useful for selective inhibition of the coagulation cascade” (Pharmacia Corporation, priority 1999, dated 2000).

What was measured:
[1] = molecular target: Trypsin (Sus scrofa, UniProt P00761); assay: Trypsin Assay; conditions: read-out: IC50 or % Inhibition Trpysin II (30 uM); cells printed as bare numbers (IC50)
[2] = molecular target: T1, TF-VIIa (Homo sapiens, UniProt P08709); assay: TF-VIIa Assay; format: biochemical; conditions: % inhibition at 30 µM (cells with % or %@30, bare 0)
T1 construct: An extrinsic pathway is initiated by the conversion of coagulation factor VII to VIIa by Xa; purchased American Diagnostica, Greenwich CT; Soluble TF was made in house in E. coli
T1 sequence (P08709 213-466 limits assumed): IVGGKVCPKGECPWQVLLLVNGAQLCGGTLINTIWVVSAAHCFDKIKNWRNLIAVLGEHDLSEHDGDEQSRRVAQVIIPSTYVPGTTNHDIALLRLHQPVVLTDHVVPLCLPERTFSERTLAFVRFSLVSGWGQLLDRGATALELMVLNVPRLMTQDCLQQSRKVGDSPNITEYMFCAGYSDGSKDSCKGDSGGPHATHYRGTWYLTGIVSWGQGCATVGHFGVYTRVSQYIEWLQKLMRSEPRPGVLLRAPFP
T1 sequence (P08709 61-212 limits assumed): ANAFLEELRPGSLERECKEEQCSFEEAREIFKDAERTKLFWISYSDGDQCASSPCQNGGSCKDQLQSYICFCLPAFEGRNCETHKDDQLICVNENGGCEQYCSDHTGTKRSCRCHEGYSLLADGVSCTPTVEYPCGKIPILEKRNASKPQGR
T1 sequence (P13726 33-251 partner limits assumed): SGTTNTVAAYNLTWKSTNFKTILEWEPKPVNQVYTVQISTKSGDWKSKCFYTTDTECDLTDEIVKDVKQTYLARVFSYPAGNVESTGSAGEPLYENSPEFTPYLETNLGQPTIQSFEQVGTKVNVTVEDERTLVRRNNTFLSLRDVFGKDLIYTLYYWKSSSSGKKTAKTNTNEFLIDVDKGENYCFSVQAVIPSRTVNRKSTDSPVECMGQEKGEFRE

[3] = molecular target: T2, Human factor Xa (Homo sapiens, UniProt P00742); assay: Xa Assay; format: biochemical; conditions: for IC50: cells printed as bare numbers (IC50), read-out: IC50 or % Inhibition Factor Xa (30 µM)
T2 construct: leads from XII to XIIa to XIa to IXa and to the conversion of X to Xa; purchased Enzyme Research Laboratories, South Bend IN
T2 sequence (P00742 235-488 limits assumed): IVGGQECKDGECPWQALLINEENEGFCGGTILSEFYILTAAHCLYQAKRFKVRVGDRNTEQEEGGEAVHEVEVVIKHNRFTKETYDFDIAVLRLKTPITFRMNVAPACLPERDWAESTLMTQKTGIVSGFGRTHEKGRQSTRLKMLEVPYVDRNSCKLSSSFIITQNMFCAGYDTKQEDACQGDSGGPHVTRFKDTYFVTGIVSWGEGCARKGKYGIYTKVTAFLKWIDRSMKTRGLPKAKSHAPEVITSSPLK
T2 sequence (P00742 41-179 limits assumed): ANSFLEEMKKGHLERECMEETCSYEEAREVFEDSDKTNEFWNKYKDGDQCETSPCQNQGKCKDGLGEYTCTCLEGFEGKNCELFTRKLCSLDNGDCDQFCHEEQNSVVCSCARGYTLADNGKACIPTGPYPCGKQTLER

Chain of Trypsin (P00761 9-231): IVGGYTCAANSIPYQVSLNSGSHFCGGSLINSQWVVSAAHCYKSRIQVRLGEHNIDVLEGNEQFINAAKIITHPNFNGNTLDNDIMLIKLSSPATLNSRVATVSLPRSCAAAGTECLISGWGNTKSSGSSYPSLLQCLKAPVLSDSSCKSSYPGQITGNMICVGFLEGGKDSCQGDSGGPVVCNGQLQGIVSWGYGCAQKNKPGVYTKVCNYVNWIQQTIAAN

Row | IC50 [1] [nM] | IC50 or % Inhibition TF-VIIa (30 µM) [2] [%] | IC50 or % Inhibition Factor Xa (30 µM) ([3]; % inhibition at 30 µM (cells with % or %@30, bare 0)) [%] | IC50 [3] [nM] | SMILES
1 | – | 39 | 4 | – | CC(C)(C)C1CCC(Nc2nc(Cl)c(-c3ccccc3)n(CC(=O)NCc3ccc(C(=N)N)cc3)c2=O)CC1 (stereo not drawn) [1512-17]
2 | 330 | – | – | – | C=CCNc1nc(Cl)c(-c2ccccc2)n(CC(=O)NCc2ccc(C(=N)N)cc2)c1=O [1517-38]
3 | 430 | – | – | – | CNc1nc(Cl)c(-c2ccccc2)n(CC(=O)NCc2ccc(C(=N)N)cc2)c1=O [1517-39]
4 | 220 | – | – | – | CC(C)Nc1nc(Cl)c(-c2ccccc2)n(CC(=O)NCc2ccc(C(=N)N)cc2)c1=O [1517-44]
5 | 360 | – | – | – | CCNc1nc(Cl)c(-c2ccccc2)n(CC(=O)NCc2ccc(C(=N)N)cc2)c1=O [1517-46]
6 | 200 | – | – | > 30000 | N=C(N)c1ccc(CNC(=O)Cn2c(-c3ccccc3)c(Cl)nc(NCCO)c2=O)cc1 [1522-02]
7 | 200 | – | – | > 30000 | N=C(N)c1ccc(CNC(=O)Cn2c(-c3ccccc3)c(Cl)nc(NCCCCO)c2=O)cc1 [1522-05]
8 | 200 | – | – | > 30000 | C#CCNc1nc(Cl)c(-c2ccccc2)n(CC(=O)NCc2ccc(C(=N)N)cc2)c1=O [1522-21]
9 | 200 | – | – | > 30000 | N=C(N)c1ccc(CNC(=O)Cn2c(-c3ccccc3)c(Cl)nc(NCCCO)c2=O)cc1 [1522-41]
10 | 200 | – | – | – | CCNc1nc(Cl)c(-c2cccc(N)c2)n(CC(=O)NCc2ccc(C(=N)N)cc2)c1=O [1526-12]
11 | 170 | – | – | > 30000 | CC(C)Nc1nc(Cl)c(-c2cccc(N)c2)n(CC(=O)NCc2ccc(C(=N)N)cc2)c1=O [1526-24]
12 | 140 | – | – | – | N=C(N)c1ccc(CNC(=O)Cn2c(-c3cccc(O)c3)c(Cl)nc(NC3CCC3)c2=O)cc1 [Example 67]

Second part, the molecule before the results:

Row | SMILES | IC50 [1] [nM] | IC50 or % Inhibition TF-VIIa (30 µM) [2] [%] | IC50 or % Inhibition Factor Xa (30 µM) ([3]; % inhibition at 30 µM (cells with % or %@30, bare 0)) [%] | IC50 [3] [nM]
13 | N=C(N)c1ccc(CNC(=O)Cn2c(-c3ccccc3)c(Cl)nc(NCCc3ccccc3)c2=O)cc1 [1471-15] | 240 | – | – | –
14 | COc1ccc(-c2c(Cl)nc(NCCc3ccccc3)c(=O)n2CC(=O)NCc2ccc(C(=N)N)cc2)cc1 [1471-39] | 290 | – | – | –
15 | N=C(N)c1ccc(CNC(=O)Cn2c(-c3ccccc3)c(Cl)nc(NCc3cccc(C(F)(F)F)c3)c2=O)cc1 [1507-01] | 900 | – | – | –
16 | COc1cccc(-c2c(Cl)nc(NCCc3ccccc3)c(=O)n2CC(=O)NCc2ccc(C(=N)N)cc2)c1 [1515-29] | 2200 | – | – | > 30000
17 | N=C(N)c1ccc(CNC(=O)Cn2c(-c3ccc(C(F)(F)F)cc3)c(Cl)nc(NCCc3ccccc3)c2=O)cc1 [1515-32] | 1400 | – | – | > 30000
18 | N=C(N)c1ccc(CNC(=O)Cn2c(-c3ccccc3C(F)(F)F)c(Cl)nc(NCCc3ccccc3)c2=O)cc1 [1515-36] | 5400 | – | – | > 30000
19 | N=C(N)c1ccc(CNC(=O)Cn2c(-c3ccccc3)c(Cl)nc(NCCCCCCO)c2=O)cc1 [1522-07] | 150 | – | – | > 30000
20 | CCC(CC)Nc1nc(Cl)c(-c2ccccc2)n(CC(=O)NCc2ccc(C(=N)N)cc2)c1=O [1522-11] | 200 | – | – | > 30000
21 | N=C(N)c1ccc(CNC(=O)Cn2c(-c3ccccc3)c(Cl)nc(N3CCCC3)c2=O)cc1 [1522-27] | 350 | – | – | > 30000
